The whole screen tested about 350,000 compounds, of which about 9,900 (2.8%) were called active. Inconclusive results, whose numbers are uncertain, are shown with a selection of clear calls. Calls come from the whole dose curve; as a rule, active = well fitted activation curve with a large enough effect; inconclusive = small, poorly fitted or top-dose-only effect; inactive = no such curve, though single readings can be large or run the other way. No potency is given beside an inconclusive call; the fits are too rough.
Assay: A quantitative high throughput screen for small molecules that induce DNA re-replication in MCF 10a normal breast cells. Note: nearly all actives have a fitted effect of over 50% in size.
Details: MCF 10A DNA re-replication, Hoechst nuclear intensity, 48 h; series mostly up to 46.1 µM
Potency is the fitted concentration of half-maximal effect; tags give direction and shape of the fitted curve.

SMILES | Potency
Clc1ccc(Nc2ccc(-n3ccnc3)nn2)cc1Cl | inconclusive [activator, single point]
CN1CCN(CC(O)COc2ccc(C(=O)O)cc2)CC1 (stereo not given) | inconclusive [activator, partial curve, poor fit]
CCOC(=O)CSc1nnc2c3ccccc3n(CC)c2n1 | inconclusive [activator, partial curve, poor fit]
C[C@H](NS(=O)(=O)c1ccc(Cl)cc1)C(=O)OCC(=O)N1CCOCC1 | inactive
Cc1cc(C)nc(-n2ncc3c2CC(c2cccc(Cl)c2)CC3=O)n1 (stereo not given) | inconclusive [activator, single point]
CCOc1ccc(CNc2ccc3c(c2)ncn3C(C)(C)C)cc1 | inactive
Cc1ccc(NC(=S)N=Nc2c(O)n(C)c3ccc(S(=O)(=O)N4CCOCC4)cc23)cc1 | inconclusive [activator, full curve, poor fit]
COc1cc2[nH]c(-c3cccc(F)c3)cc(=O)c2cc1OC | inconclusive [activator, single point]
CC(=O)C1=C(NC(=O)c2ccc(F)cc2)CC2C1C2(C)C (stereo not given) | inconclusive [activator, partial curve]
OCCC1CN(Cc2cn[nH]c2C2CCCCC2)CCN1C1CCCC1 (stereo not given) | inactive
Cc1ccc(O)c(C(=O)CC(=O)c2ccc(C(C)(C)C)cc2)c1 | inconclusive [activator, single point]
COc1ccc(/C=N/NC(=O)Nc2cccc3nsnc23)c(OC)c1 | inconclusive [activator, partial curve]
CCS(=O)(=O)N1Cc2ccccc2CC1C(=O)N(C)CC(=O)Nc1ccc(OC)cc1 (stereo not given) | inactive
O=C(/C=C/c1ccco1)NC(=S)Nc1ccccc1Br | active: 20.6 µM
CCOC(=O)C1=C(CCc2ccccc2)NC(=O)NC1c1cccc([N+](=O)[O-])c1 (stereo not given) | inactive
Cc1cc(C)c2c(N)c(C(=O)c3cccc(Cl)c3)sc2n1 | inconclusive [activator, single point]
COC(=O)c1ccc(CN2CCN(CCCc3ccccc3)C(CCO)C2)cc1 (stereo not given) | inconclusive [activator, partial curve, poor fit]
Cc1cc2nc(N)sc2cc1[N+](=O)[O-] | inactive
NS(=O)(=O)c1ccc(N=Nc2c[nH]c(=O)c(O)c2)cc1 | inconclusive [activator, single point]
CC(C)(C)C1CCc2onc(C(=O)Nc3cnn(Cc4ccc(F)cc4)c3)c2C1 (stereo not given) | inconclusive [activator, partial curve]
C/C(=N\NC(=O)c1csc2ccccc12)c1ccc(O)cc1 | inactive
O=C(CCc1nnc2ccc(N3CCOCC3)nn12)Nc1ccc(F)cc1F | inactive
CN(C)c1nc(N(C)C)nc(N2CC(=O)N(c3ccccc3)C2=N)n1 | inactive

SMILES | Potency
COc1ccccc1/C=C/C=N/N1CCN(Cc2ccc(Cl)cc2)CC1 | inconclusive [activator, partial curve, poor fit]
Cc1cc(C(=O)Cn2nnc3ccccc3c2=O)c(C)n1-c1ccccc1F | inconclusive [activator, full curve, poor fit]
C=CCn1c(O)c(N=NC(=O)CNC(=O)c2ccco2)c2ccccc21 | active: 18.4 µM
CCOc1cc(CNC2CCCC2)cc(Cl)c1OCc1ccc(F)cc1 | inconclusive [activator, single point]
COc1ccc(Cl)cc1NS(=O)(=O)c1cccc(C(=O)NCC(c2ccco2)N(C)C)c1 (stereo not given) | inconclusive [activator, partial curve]
COc1ccc(Nc2ncnc3sccc23)c(OC)c1 | inconclusive [activator, full curve, poor fit]
O=C(Oc1ccc(Br)cc1C(=O)/C=C/c1ccccc1F)c1ccco1 | inconclusive [activator, single point]
Cc1ccc(C)c(NC(CC(=O)c2ccccc2)C(=O)OCC(=O)c2cccs2)c1 (stereo not given) | inconclusive [activator, single point]
COC(=O)c1ccc2c(=O)[nH]c(CCl)nc2c1 | inconclusive [activator, partial curve, poor fit]
COc1ccc(NC(=O)O/N=C/c2c(C)nn(C(C)(C)C)c2C)cc1 | inactive
COC(=O)C1C(c2ccc(Br)cc2)Nc2nnc(C(F)(F)F)n2C1(C)O (stereo not given) | inconclusive [activator, single point]
Cc1ccc(N=CNc2ccc(C)cc2C)c(C)c1 | inconclusive [activator, full curve]
Cc1[nH]c(=O)[nH]c1C(=O)CCCCC(=O)O | inactive
COc1ccc(Cn2c(CCC(=O)Nc3ccc(C)cc3)nc3cccnc32)cc1 | inconclusive [activator, single point]
CCOC(=O)/C=C/[C@H]1CCc2cccc(C)c2O1 | inactive
Cc1cccc(Cl)c1NC(=S)NN | inconclusive [activator, single point]
CC(O)CNCCCOc1cccc(Oc2ccccc2)c1 (stereo not given) | inconclusive [activator, partial curve, poor fit]
COc1ccccc1/C=C/CN1CCC(n2nccc2NC(=O)C2CC2)CC1 | inactive
Cc1occc1C(=O)N/N=C/c1cccc2ccccc12 | inconclusive [activator, partial curve, poor fit]
Fc1ccc(-n2c(Cn3nnc4ccccc43)n[nH]c2=S)cc1 | inconclusive [activator, full curve, poor fit]
Cc1c(C(=O)OC(C)C)nnn1-c1nonc1N | inconclusive [activator, single point]
CC(=O)N(C(C)=O)c1ncnc2c1c(-c1ccc(Cl)cc1)nn2C(C)(C)C | inconclusive [activator, single point]

From PubChem BioAssay AID624296 (National Center for Advancing Translational Sciences (NCATS), 2012)
